Results taken from the supplement of paper PMC8728848.
The other results are listed elsewhere or left out.

Legend:
Assay in all cases: glycan array binding signal (z-score within array); higher = stronger binding
Settings in all cases: glycan notation: IUPAC condensed, linker removed
[1] = biological target: Gal(a1-3)Gal(b1-4)GlcNAc(b1-2)Man
How it was run: (§1)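 The binding signal is a Z-score computed within each array and averaged over linkers. Arrays of the same protein sequence at different concentrations or buffers were also averaged together. Data originate from 3228 arrays in the Consortium for Functional Glycomics database, kept only where the protein sequence was available.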

[2] = biological target: Gal(a1-3)Gal(b1-4)GlcNAc(b1-2)Man(a1-3)[Gal(a1-3)Gal(b1-4)GlcNAc(b1-2)Man(a1-6)]Man(b1-4)GlcNAc(b1-4)GlcNAc
How it was run: as §1

[3] = biological target: Gal(a1-3)Gal(b1-4)GlcNAc(b1-3)GalNAc
How it was run: as §1

[4] = biological target: Gal(a1-3)Gal(b1-4)GlcNAc(b1-6)GalNAc
How it was run: as §1

[5] = biological target: Gal(a1-3)Gal(b1-4)[Fuc(a1-3)]GlcNAc
How it was run: as §1

[6] = biological target: Gal(a1-3)Gal(b1-4)[Fuc(a1-3)]GlcNAc(b1-2)Man(a1-3)[Gal(a1-3)Gal(b1-4)[Fuc(a1-3)]GlcNAc(b1-2)Man(a1-6)]Man(b1-4)GlcNAc(b1-4)GlcNAc
How it was run: as §1

Gal(a1-3)GalNAc = biological target: Gal(a1-3)GalNAc
How it was run: as §1

[7] = biological target: Gal(a1-3)[Gal(a1-4)]Gal(b1-4)GlcNAc
How it was run: as §1

[8] = biological target: Gal(a1-4)Gal(b1-3)GlcNAc(b1-2)Man(a1-3)[Gal(a1-4)Gal(b1-3)GlcNAc(b1-2)Man(a1-6)]Man(b1-4)GlcNAc(b1-4)GlcNAc
How it was run: as §1

Gal(a1-4)Gal(b1-4)Glc = biological target: Gal(a1-4)Gal(b1-4)Glc
How it was run: as §1

Gal(a1-4)Gal(b1-4)GlcNAc = biological target: Gal(a1-4)Gal(b1-4)GlcNAc
How it was run: as §1

[9] = biological target: Gal(a1-4)Gal(b1-4)GlcNAc(b1-2)Man(a1-3)[Gal(a1-4)Gal(b1-4)GlcNAc(b1-2)Man(a1-6)]Man(b1-4)GlcNAc(b1-4)GlcNAc
How it was run: as §1

[10] = biological target: Gal(a1-4)Gal(b1-4)GlcNAc(b1-3)Gal(b1-4)Glc
How it was run: as §1

Gal(a1-4)GlcNAc = biological target: Gal(a1-4)GlcNAc
How it was run: as §1

Gal(a1-6)Glc = biological target: Gal(a1-6)Glc
How it was run: as §1

Gal(b1-2)Gal = biological target: Gal(b1-2)Gal
How it was run: as §1

Gal(b1-3)Gal = biological target: Gal(b1-3)Gal
How it was run: as §1

Gal(b1-3)Gal(b1-4)GlcNAc = biological target: Gal(b1-3)Gal(b1-4)GlcNAc
How it was run: as §1

Gal(b1-3)GalNAc = biological target: Gal(b1-3)GalNAc
How it was run: as §1

[11] = biological target: Gal(b1-3)GalNAc(a1-3)[Fuc(a1-2)]Gal(b1-4)Glc
How it was run: as §1

[12] = biological target: Gal(b1-3)GalNAc(a1-3)[Fuc(a1-2)]Gal(b1-4)GlcNAc
How it was run: as §1

Gal(b1-3)GalNAc(b1-3)Gal = biological target: Gal(b1-3)GalNAc(b1-3)Gal
How it was run: as §1

[13] = biological target: Gal(b1-3)GalNAc(b1-3)Gal(a1-4)Gal(b1-4)Glc
How it was run: as §1

[14] = biological target: Gal(b1-3)GalNAc(b1-4)Gal(b1-4)Glc
How it was run: as §1

[15] = biological target: Gal(b1-3)GalNAc(b1-4)[Neu5Ac(a2-3)]Gal(b1-4)Glc
How it was run: as §1

Gal(b1-3)GlcNAc = biological target: Gal(b1-3)GlcNAc
How it was run: as §1

[16] = biological target: Gal(b1-3)GlcNAc(a1-3)Gal(b1-4)GlcNAc
How it was run: as §1

[17] = biological target: Gal(b1-3)GlcNAc(a1-6)Gal(b1-4)GlcNAc
How it was run: as §1

Gal(b1-3)GlcNAc(b1-2)Man = biological target: Gal(b1-3)GlcNAc(b1-2)Man
How it was run: as §1

[18] = biological target: Gal(b1-3)GlcNAc(b1-2)Man(a1-3)[Gal(b1-3)GlcNAc(b1-2)Man(a1-6)]Man(b1-4)GlcNAc(b1-4)GlcNAc
How it was run: as §1

[19] = biological target: Gal(b1-3)GlcNAc(b1-2)Man(a1-3)[Gal(b1-3)GlcNAc(b1-2)Man(a1-6)]Man(b1-4)GlcNAc(b1-4)[Fuc(a1-6)]GlcNAc
How it was run: as §1

[20] = biological target: Gal(b1-3)GlcNAc(b1-2)Man(a1-3)[GlcNAc(b1-4)][Gal(b1-3)GlcNAc(b1-2)Man(a1-6)]Man(b1-4)GlcNAc(b1-4)GlcNAc
How it was run: as §1

[21] = biological target: Gal(b1-3)GlcNAc(b1-2)[Gal(b1-3)GlcNAc(b1-6)]Man(a1-6)[Gal(b1-3)GlcNAc(b1-2)Man(a1-3)]Man(b1-4)GlcNAc(b1-4)GlcNAc
How it was run: as §1

[22] = biological target: Gal(b1-3)GlcNAc(b1-3)Gal(b1-3)GlcNAc
How it was run: as §1

[23] = biological target: Gal(b1-3)GlcNAc(b1-3)Gal(b1-4)Glc
How it was run: as §1

[24] = biological target: Gal(b1-3)GlcNAc(b1-3)Gal(b1-4)GlcNAc
How it was run: as §1

[25] = biological target: Gal(b1-3)GlcNAc(b1-3)Gal(b1-4)GlcNAc(b1-2)Man(a1-3)[Gal(b1-3)GlcNAc(b1-3)Gal(b1-4)GlcNAc(b1-2)Man(a1-6)]Man(b1-4)GlcNAc(b1-4)GlcNAc
How it was run: as §1

[26] = biological target: Gal(b1-3)GlcNAc(b1-3)Gal(b1-4)GlcNAc(b1-2)[Gal(b1-3)GlcNAc(b1-3)Gal(b1-4)GlcNAc(b1-6)]Man(a1-6)[Gal(b1-3)GlcNAc(b1-3)Gal(b1-4)GlcNAc(b1-2)Man(a1-3)]Man(b1-4)GlcNAc(b1-4)[Fuc(a1-6)]GlcNAc
How it was run: as §1

[27] = biological target: Gal(b1-3)GlcNAc(b1-3)Gal(b1-4)GlcNAc(b1-3)Gal(b1-4)GlcNAc(b1-2)[Gal(b1-3)GlcNAc(b1-3)Gal(b1-4)GlcNAc(b1-3)Gal(b1-4)GlcNAc(b1-6)]Man(a1-6)[Gal(b1-3)GlcNAc(b1-3)Gal(b1-4)GlcNAc(b1-3)Gal(b1-4)GlcNAc(b1-2)Man(a1-3)]Man(b1-4)GlcNAc(b1-4)[Fuc(a1-6)]GlcNAc
How it was run: as §1

[28] = biological target: Gal(b1-3)GlcNAc(b1-3)Gal(b1-4)GlcNAc(b1-6)[Gal(b1-3)GlcNAc(b1-3)]Gal(b1-4)Glc
How it was run: as §1

[29] = biological target: Gal(b1-3)GlcNAc(b1-3)Gal(b1-4)[Fuc(a1-3)]GlcNAc
How it was run: as §1

[30] = biological target: Gal(b1-3)GlcNAc(b1-3)Gal(b1-4)[Fuc(a1-3)]GlcNAc(b1-6)[Gal(b1-3)GlcNAc(b1-3)]Gal(b1-4)Glc
How it was run: as §1

[31] = biological target: Gal(b1-3)GlcNAc(b1-3)GalNAc
How it was run: as §1

[32] = biological target: Gal(b1-3)GlcNAc(b1-6)Gal(b1-4)GlcNAc
How it was run: as §1

[33] = biological target: Gal(b1-3)GlcNAc(b1-6)GalNAc
How it was run: as §1

B1: CBM40 CPF071 (Clostridium perfringens) (protein)
chain: MAHHHHHHVGTGSNDDDDKSPDPMLSSLGEYKDINLESSNASNITYDLEKYKNLDEGTIVVRFNSKDSKIQSLLGISNSKTKNGYFNFYVTNSRVGFELRNQKNEGNTQNGTENLVHMYKDVALNDGDNTVALKIEKNKGYKLFLNGKMIKEVKDTNTKFLNNIENLDSAFIGKTNRYGQSNEYNFKGNIGFMNIYNEPLGDDYLLSKTGETK
- glycan array binding signal (z-score) [1]: -0.094
- glycan array binding signal (z-score) [2]: 0.206
- glycan array binding signal (z-score) [3]: -0.285
- glycan array binding signal (z-score) [4]: -0.408
- glycan array binding signal (z-score) [5]: -0.342
- glycan array binding signal (z-score) [6]: 1.37
- glycan array binding signal (z-score) (Gal(a1-3)GalNAc): -0.208
- glycan array binding signal (z-score) [7]: -0.142
- glycan array binding signal (z-score) [8]: -0.281
- glycan array binding signal (z-score) (Gal(a1-4)Gal(b1-4)Glc): 0.021
- glycan array binding signal (z-score) (Gal(a1-4)Gal(b1-4)GlcNAc): -0.245
- glycan array binding signal (z-score) [9]: -0.391
- glycan array binding signal (z-score) [10]: -0.285
- glycan array binding signal (z-score) (Gal(a1-4)GlcNAc): -0.515
- glycan array binding signal (z-score) (Gal(a1-6)Glc): 0.075
- glycan array binding signal (z-score) (Gal(b1-2)Gal): -0.495
- glycan array binding signal (z-score) (Gal(b1-3)Gal): -0.253
- glycan array binding signal (z-score) (Gal(b1-3)Gal(b1-4)GlcNAc): -0.248
- glycan array binding signal (z-score) (Gal(b1-3)GalNAc): -0.342
- glycan array binding signal (z-score) [11]: -0.294
- glycan array binding signal (z-score) [12]: -0.311
- glycan array binding signal (z-score) (Gal(b1-3)GalNAc(b1-3)Gal): -0.112
- glycan array binding signal (z-score) [13]: 0.073
- glycan array binding signal (z-score) [14]: -0.401
- glycan array binding signal (z-score) [15]: -0.402
- glycan array binding signal (z-score) (Gal(b1-3)GlcNAc): -0.326
- glycan array binding signal (z-score) [16]: -0.517
- glycan array binding signal (z-score) [17]: -0.649
- glycan array binding signal (z-score) (Gal(b1-3)GlcNAc(b1-2)Man): -0.631
- glycan array binding signal (z-score) [18]: 0.26
- glycan array binding signal (z-score) [19]: -0.112
- glycan array binding signal (z-score) [20]: -0.434
- glycan array binding signal (z-score) [21]: -0.477
- glycan array binding signal (z-score) [22]: -0.437
- glycan array binding signal (z-score) [23]: -0.382
- glycan array binding signal (z-score) [24]: -0.278
- glycan array binding signal (z-score) [25]: -0.112
- glycan array binding signal (z-score) [26]: 0.351
- glycan array binding signal (z-score) [27]: -0.036
- glycan array binding signal (z-score) [28]: -0.136
- glycan array binding signal (z-score) [29]: 0.029
- glycan array binding signal (z-score) [30]: -0.535
- glycan array binding signal (z-score) [31]: -0.29
- glycan array binding signal (z-score) [32]: -0.426
- glycan array binding signal (z-score) [33]: -0.153
